# Experimental data as given in publication PMC4336329 (PLoS ONE, 2015).
# Screen size: about 310,000 compounds; about 2,200 (0.71%) showed an effect of 50% or more. The effect is printed as a negative number. The list shows a part of the results.
# Target: human ether-à-go-go-related gene (hERG) potassium channel (human, UniProt Q12809)
# Assay: primary screen, population patch clamp on CHO cells stably expressing hERG
# Chain of human ether-à-go-go-related gene (hERG) potassium channel (Q12809 whole entry, looked up): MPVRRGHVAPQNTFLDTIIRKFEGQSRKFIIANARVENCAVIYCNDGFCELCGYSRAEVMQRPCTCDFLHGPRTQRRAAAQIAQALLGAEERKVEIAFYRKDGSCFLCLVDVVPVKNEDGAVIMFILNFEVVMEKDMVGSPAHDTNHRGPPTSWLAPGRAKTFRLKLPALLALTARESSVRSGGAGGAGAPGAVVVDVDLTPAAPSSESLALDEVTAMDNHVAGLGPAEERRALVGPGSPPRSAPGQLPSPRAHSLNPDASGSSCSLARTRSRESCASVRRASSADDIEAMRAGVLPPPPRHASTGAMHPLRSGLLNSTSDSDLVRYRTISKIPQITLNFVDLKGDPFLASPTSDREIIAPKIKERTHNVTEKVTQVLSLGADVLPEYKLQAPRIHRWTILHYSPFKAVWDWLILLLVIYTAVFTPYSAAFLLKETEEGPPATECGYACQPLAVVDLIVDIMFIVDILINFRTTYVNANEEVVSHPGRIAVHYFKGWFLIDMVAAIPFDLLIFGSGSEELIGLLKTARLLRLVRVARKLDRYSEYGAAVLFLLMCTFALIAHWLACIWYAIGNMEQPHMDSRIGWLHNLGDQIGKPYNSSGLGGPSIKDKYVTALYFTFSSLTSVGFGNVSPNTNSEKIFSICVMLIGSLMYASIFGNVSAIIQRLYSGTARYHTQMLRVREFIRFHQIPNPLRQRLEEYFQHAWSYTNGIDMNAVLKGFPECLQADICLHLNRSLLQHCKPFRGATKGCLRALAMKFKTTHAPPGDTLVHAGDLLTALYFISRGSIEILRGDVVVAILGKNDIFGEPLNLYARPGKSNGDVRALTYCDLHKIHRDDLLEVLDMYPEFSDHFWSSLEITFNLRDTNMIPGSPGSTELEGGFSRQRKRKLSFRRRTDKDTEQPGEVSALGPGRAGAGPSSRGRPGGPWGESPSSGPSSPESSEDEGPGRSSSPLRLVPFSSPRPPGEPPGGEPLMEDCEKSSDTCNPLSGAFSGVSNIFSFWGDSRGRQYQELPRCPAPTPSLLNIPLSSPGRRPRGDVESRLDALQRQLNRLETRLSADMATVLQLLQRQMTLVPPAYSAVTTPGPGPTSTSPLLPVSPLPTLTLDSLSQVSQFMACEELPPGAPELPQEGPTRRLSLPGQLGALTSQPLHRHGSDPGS
row,Compound,"hERG current change (%, negative = inhibition) at 1uM"
1,Cc1csc(=O)n1CC(=O)OCC(=O)N(CC(C)C)c1c(N)n(Cc2ccccc2)c(=O)[nH]c1=O,2.14%
2,CCc1ccccc1NC(=O)CSC1=C(C#N)C(c2ccc(O)c(OC)c2)C2=C(CCCC2=O)N1 (stereo not shown),11.8%
3,CCOC(=O)c1nc[nH]c1C,-3.87%
4,CC(=O)c1ccccn1,16.6%
5,O=C(N/N=C/c1ccc(OCC(=O)N2CCCCC2)cc1)c1ccccc1O,10%
6,Cc1ccc(S(=O)(=O)Nc2nc(-c3ccccc3)cs2)cc1,15.1%
7,CCOC(=O)CN1C(=O)N(c2ccccc2OC)S(=O)(=O)c2ccccc21,18.2%
8,CC(NC(=O)c1ccccc1Cl)c1ccc(-n2ccnc2)cc1 (stereo not shown),-1.53%
9,COc1ccccc1OCC(=O)NCCSCc1ccc(Cl)cc1,1.98%
10,O=C(CN(Cc1ccco1)C(=O)c1cc(=O)[nH]c2ccccc12)Nc1ccccc1C(F)(F)F,7.43%
11,CC(Oc1ccccc1)C(=O)Nc1nnc(S(=O)(=O)Nc2ccccc2)s1 (stereo not shown),9.03%
12,Cc1ccc(S(=O)(=O)N2CCN=C2SC(C)c2ccccc2)cc1 (stereo not shown),7.77%
13,CCOC(=O)N1CCN(S(=O)(=O)c2ccc(C(=O)N(CCN(CC)CC)c3nc4ccc(C)cc4s3)cc2)CC1.Cl,0.455%
14,Cn1c(=O)c2c(ncn2CC(=O)N/N=C/C(Br)=C/c2ccccc2)n(C)c1=O,4.08%
15,CN1CCCC1=Nc1c2c(nc3ccccc13)N(C)CC2,9.42%
16,Cc1ccc(C2(C)NC(=O)N(CC(=O)N(C)CC(=O)Nc3cccc(F)c3)C2=O)cc1 (stereo not shown),9.85%
17,Cc1ccc(C(=O)Cc2ccccc2)o1,7.75%
18,O=C(Cn1ncc2c(=O)oc3ccccc3c21)N1CCCN(Cc2ccccc2F)C1,1.59%
19,O=C(O)C(=O)O.c1cncc(CNCCc2ccc3c(c2)OCO3)c1,10.2%
20,O=C(CCCOc1ccccc1)Nc1ncccn1,11.7%
21,N#Cc1c[nH]n2c(=O)cc(Cc3ccccc3)nc12,12.8%
22,CCC(CC)C(=O)N1CCN(Cc2ccc3c(c2)OCO3)CC1,-1.34%
23,CC(C)N(C(=O)Cn1cc(S(=O)(=O)CC(=O)Nc2ccccc2)c2ccccc21)C(C)C,3.55%

row,Compound,"hERG current change (%, negative = inhibition) at 1uM"
1,O=C(CNC(=S)N(Cc1ccccc1Cl)C1CCCC1)NCCCN1CCOCC1,7.38%
2,O=C(CCc1nnc(CCCCc2ccccc2)o1)N1CCCC(O)C1 (stereo not shown),4.77%
3,NC(=O)CSc1nnc2ccc(-c3ccc(Cl)cc3)nn12,7.54%
4,CCN1CCN(S(=O)(=O)c2ccc(Cl)c(C(=O)NC3CCCCC3)c2)CC1,-0.482%
5,COc1ccccc1NC(=O)CN(c1ccccc1)S(=O)(=O)c1ccccc1,12.8%
6,Cc1ccccc1Nc1ccc([N+](=O)[O-])cn1,12.3%
7,CCOC(=O)C1CCN(C(=S)Nc2cccc(C)c2)CC1,13.7%
8,Cc1ccc(S(=O)(=O)N(C)C)cc1NC(=O)COC(=O)c1ccc2ccccc2n1,7.99%
9,COc1ccc(CC(=O)N/N=C(\C)c2cccs2)cc1OC,13.7%
10,Cl.Nc1nonc1C(=O)N/N=C/c1cc(Br)ccc1O,13%
11,COc1ccc(C)cc1NC(=O)C(OC(=O)c1cnc(C)cn1)c1ccccc1 (stereo not shown),10.6%
12,COc1ccc(CCNC(=O)Cc2ccc([N+](=O)[O-])cc2)cc1OC,5.98%
13,Cc1nc2nc(-c3ccccc3)nn2c(C)c1C,-0.954%
14,Cc1cccn2c(CNC3CCCc4ccccc43)c(C(=O)N3CCCCC3)nc12 (stereo not shown),14.5%
15,COc1ccc(C(C(=O)NCC2CCCO2)N(Cc2cccs2)C(=O)c2snc(C(N)=O)c2N)cc1OC (stereo not shown),22.5%
16,Nc1nc(/C=C/c2cccnc2)nc(-c2ccccc2O)n1,10.4%
17,CCc1nnc(NC(=O)c2ccc(S(=O)(=O)N(CC)CC)cc2)s1,17.2%
18,CC(C)Oc1ccc(C(=O)N(CN2CCCC2=O)c2ccc(F)cc2)cc1,8.86%
19,CCOC(=O)N1CCN(C(=O)CN(C)S(=O)(=O)c2ccc3c(c2)c(=O)n(C)c(=O)n3C)CC1,27%
20,N#Cc1c(N)sc(=S)c2c1CCN(Cc1ccccc1)C2,-0.674%
21,CC1OC(C[N+](C)(C)C)CC1O.[Cl-] (stereo not shown),6.2%
22,O=C(/C=C/c1ccc(Cl)cc1)NCc1ccco1,2.44%
23,COc1ccc2cc3cc(C(=O)NCCN4CCc5ccccc5C4)sc3nc2c1,-7.5%

row,Compound,"hERG current change (%, negative = inhibition) at 1uM"
1,CC(C)n1c(SCC(=O)Nc2ccccc2)nc2c1c(=O)n(C)c(=O)n2C,5.81%
2,CCCCN(C(=O)c1ccc(S(=O)(=O)N(C)C)cc1)c1ccccc1,5.03%
3,CC(C)c1nc(N2CCN(C(=O)c3ccccc3)CC2)c(C#N)c2c1COC(C)(C)C2,-6.07%
4,COc1ccc(CNc2nc(=S)[nH]c3cc(OC)c(OC)cc23)cc1,9.14%
5,Cc1ccc(N2CC(O)Cn3c2nc2c3c(=O)[nH]c(=O)n2C)cc1 (stereo not shown),10.8%
6,CSC1=NC2(CCCCC2)CC12C=CC(=O)C=C2,10.9%
7,Cc1ccnc(NC(=O)CCC(=O)N(CC(=O)NC(C)(C)C)C2CCCC2)c1,9.41%
8,COc1ccccc1NC(=S)N1CC(C)(C)C1=O,4.26%
9,COC(=O)CN1CCN(C(c2ccccc2)c2ccccc2)CC1,7.36%
10,C/C(=N\NC(=O)c1cc(-c2ccc(Cl)s2)[nH]n1)c1ccncc1,5.8%
11,CCCNC(=O)C1(CC2CC(c3ccccc3)=NO2)CCNCC1 (stereo not shown),12.2%
12,C/C(=N\NC(=O)c1nn(C)cc1Cl)c1ccncc1,4.34%
13,Cc1ccc2[nH]c3c(=O)n(Cc4ccco4)cnc3c2c1,13.5%
14,CCCN(CCO)CCCc1ccccc1,5.56%
15,COc1ccc(Cc2nnc(NC(=O)c3ccco3)s2)cc1,-5.35%
16,C=CCOc1cccc(C(=O)N2CCCC(Nc3ccc(F)cc3)C2)c1 (stereo not shown),-5.03%
17,Cc1nc2c(Br)cc(Br)cc2cc1O,12.9%
18,Cc1ccc2nc(N3CCN(S(=O)(=O)c4ccc(C)c(Cl)c4)CC3)c(C#N)cc2c1,5.94%
19,O=C(Nc1ccc(Cl)cc1)Nc1cccnc1,-17.8%
20,CCC(=O)Nc1cc2c(cc1C(=O)CC)OCCO2,13.7%
21,CC12CN3CC(C)(CN(C1)C3c1ccc([N+](=O)[O-])o1)C2 (stereo not shown),16.9%
22,Cc1cc(C(=O)N/N=C/c2ccc(-c3ccc([N+](=O)[O-])cc3C)o2)n[nH]1,10.5%
23,Cc1ccc(OCC(=O)Nc2ccccc2C(N)=O)cc1,11.6%

row,Compound,"hERG current change (%, negative = inhibition) at 1uM"
1,Cc1ccc(S(=O)(=O)N(C)C)cc1NC(=O)COC(=O)C1CC(=O)N(c2ccc3c(c2)OCCO3)C1 (stereo not shown),8.56%
2,CCOCC(=O)Nc1c(C(=O)N2CCN(c3ncccn3)CC2)oc2ccccc12,5.42%
3,Oc1ccc(/C=N/NC(=S)N/N=C/c2ccc(O)cc2)cc1,14.5%
4,O=C(Nc1ccc(OCc2ccccc2Cl)cc1)c1cccnc1,9.12%
5,Cc1nn(-c2ccc(F)cc2)c(N)c1C1(O)C(=O)Nc2ccccc21 (stereo not shown),13%
6,Cc1ccc2c(c1)c1c(n2CC(O)CN2CCCCC2C)CCCC1 (stereo not shown),-1.86%
7,CC(C)C(=O)n1nc(-c2cccnc2)nc1NCc1cccs1,5.8%
8,Cc1ccc(S(=O)(=O)c2cc3c(=O)n4ccccc4nc3n(CCc3ccccc3)c2=N)cc1,6.17%
9,CCN(CC(=O)NCc1cccs1)C(=O)C(c1ccccc1)c1ccccc1,3.62%
10,CCOC(=O)c1ccccc1NC(=S)N1CCN(C2CCCCC2)CC1,-18.8%
11,CCCCOc1ccc(NC(=O)CCSc2nccn2C)cc1,7.91%
12,Cc1nc2ccccc2cc1C(=O)Nc1ccccc1Cl,3.5%
13,COc1ccc(N2C(=O)CC(NCCNc3ccc([N+](=O)[O-])cn3)C2=O)cc1 (stereo not shown),-13.7%
14,COc1ccc(-c2nc(N)n(C(=O)c3cccs3)n2)cc1,16.6%
15,C/C(=C/c1ccccc1)C(=O)N1CCN(c2ccccc2)CC1,8.49%
16,Cl.c1csc(-c2cnc3n2CCCC3)c1,9.11%
17,O=S(=O)(NNc1ncc(C(F)(F)F)cc1Cl)c1ccccc1,6.1%
18,O=C(COC(=O)c1cnccn1)c1ccc(Cl)c([N+](=O)[O-])c1,14.6%
19,CCOc1ncccc1C(=O)Nc1ccc(C)cn1,9.31%
20,CCCCN1C(=O)C2Cc3c([nH]c4ccccc34)CN2C1=S (stereo not shown),11%
21,CCOC(=O)Cn1nc(-c2ccccc2)c(-c2ccccc2)nc1=O,10.4%
22,CC(C)N(CCCNC(=O)CC1Oc2ccccc2NC1=O)Cc1ccccc1 (stereo not shown),-0.508%
